The source of these data is article PMC10018360.

Protein sequences, listed by entry. Tags and fused reporters are not part of them. Lines headed by an entry give the natural chain unless they say otherwise; changes in a name come on top.
UniProt Q9Y3E1: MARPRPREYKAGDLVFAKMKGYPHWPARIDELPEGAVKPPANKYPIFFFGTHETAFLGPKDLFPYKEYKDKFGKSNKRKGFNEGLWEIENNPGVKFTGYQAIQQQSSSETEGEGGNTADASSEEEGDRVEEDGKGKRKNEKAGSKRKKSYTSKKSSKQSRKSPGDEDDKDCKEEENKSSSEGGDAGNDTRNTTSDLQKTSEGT
UniProt Q12888: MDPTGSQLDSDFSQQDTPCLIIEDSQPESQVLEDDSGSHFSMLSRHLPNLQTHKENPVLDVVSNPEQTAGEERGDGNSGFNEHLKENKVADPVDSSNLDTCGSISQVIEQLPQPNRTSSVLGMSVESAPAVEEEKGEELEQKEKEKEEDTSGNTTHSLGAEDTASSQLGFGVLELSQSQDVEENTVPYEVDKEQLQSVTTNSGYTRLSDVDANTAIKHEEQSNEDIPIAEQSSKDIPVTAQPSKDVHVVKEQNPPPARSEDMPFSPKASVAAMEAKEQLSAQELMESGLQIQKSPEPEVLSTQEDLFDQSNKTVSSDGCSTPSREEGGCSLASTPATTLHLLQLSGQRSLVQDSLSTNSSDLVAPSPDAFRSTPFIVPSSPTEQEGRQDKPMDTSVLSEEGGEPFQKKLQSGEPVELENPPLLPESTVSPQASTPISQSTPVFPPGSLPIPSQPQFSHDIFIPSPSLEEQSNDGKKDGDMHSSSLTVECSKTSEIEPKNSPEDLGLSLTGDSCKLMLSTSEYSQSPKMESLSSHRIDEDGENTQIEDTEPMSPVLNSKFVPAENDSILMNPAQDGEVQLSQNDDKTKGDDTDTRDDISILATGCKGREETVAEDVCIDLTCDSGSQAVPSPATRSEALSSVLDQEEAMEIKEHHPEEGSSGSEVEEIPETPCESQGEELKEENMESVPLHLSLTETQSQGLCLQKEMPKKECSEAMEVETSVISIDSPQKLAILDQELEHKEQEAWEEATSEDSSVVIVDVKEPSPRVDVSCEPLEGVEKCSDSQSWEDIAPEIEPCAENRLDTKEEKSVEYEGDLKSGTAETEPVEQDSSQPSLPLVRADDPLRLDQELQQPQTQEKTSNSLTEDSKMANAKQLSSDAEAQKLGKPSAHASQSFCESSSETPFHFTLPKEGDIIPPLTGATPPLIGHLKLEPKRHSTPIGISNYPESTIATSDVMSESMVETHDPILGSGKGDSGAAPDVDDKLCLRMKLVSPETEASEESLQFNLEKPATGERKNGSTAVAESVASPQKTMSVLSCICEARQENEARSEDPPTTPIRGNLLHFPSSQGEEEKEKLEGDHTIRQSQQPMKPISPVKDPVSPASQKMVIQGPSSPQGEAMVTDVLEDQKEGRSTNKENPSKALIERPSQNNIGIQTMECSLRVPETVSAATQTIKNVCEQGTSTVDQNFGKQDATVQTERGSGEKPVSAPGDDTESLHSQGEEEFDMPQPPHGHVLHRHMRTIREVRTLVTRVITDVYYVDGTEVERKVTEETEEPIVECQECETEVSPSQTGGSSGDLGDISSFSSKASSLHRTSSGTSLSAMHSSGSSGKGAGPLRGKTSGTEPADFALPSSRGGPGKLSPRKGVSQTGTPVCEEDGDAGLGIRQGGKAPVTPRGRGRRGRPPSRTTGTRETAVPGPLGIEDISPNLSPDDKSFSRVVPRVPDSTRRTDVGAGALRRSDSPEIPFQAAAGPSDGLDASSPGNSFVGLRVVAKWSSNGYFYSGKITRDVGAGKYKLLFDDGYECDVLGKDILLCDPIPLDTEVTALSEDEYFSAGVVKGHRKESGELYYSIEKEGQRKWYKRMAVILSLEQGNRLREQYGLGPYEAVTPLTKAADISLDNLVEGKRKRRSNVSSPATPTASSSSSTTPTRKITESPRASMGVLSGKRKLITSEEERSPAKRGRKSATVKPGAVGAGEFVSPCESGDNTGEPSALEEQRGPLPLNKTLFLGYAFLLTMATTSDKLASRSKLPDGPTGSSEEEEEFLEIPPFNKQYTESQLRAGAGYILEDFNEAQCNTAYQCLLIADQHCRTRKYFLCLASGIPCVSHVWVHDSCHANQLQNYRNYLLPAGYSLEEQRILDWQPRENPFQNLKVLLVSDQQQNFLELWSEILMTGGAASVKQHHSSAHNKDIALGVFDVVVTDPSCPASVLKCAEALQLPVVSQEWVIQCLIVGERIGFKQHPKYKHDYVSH

Results are given in words; binding and its absence hold for the method and conditions named. Binding seen in cells or lysates may run through a third protein. Some entries that bind do so weakly or less than the wild type.

The target of assay [1] is HDGFRP3 (hepatoma-derived growth factor related protein 3), endogenous (human (endogenous in HEK293T, U2OS, MCF10A)) (UniProt Q9Y3E1). The assay is described as follows: co-IP; endogenous proteins; HEK293T lysates in NTEN buffer with Benzonase, Protein A agarose with anti-HDGFRP3 or anti-53BP1 antibody, 3 h at 4°C; untreated or irradiated (10 Gy, 1 h recovery).
The target of assay [2] is SFB-tagged human HDGFRP3 (wild type) (human) (UniProt Q9Y3E1). The experiment in a line: co-IP; HEK293T cells co-transfected with HA-tagged 53BP1 and SFB-tagged HDGFRP3 (WT or mutants); precipitation with streptavidin beads, western blotting.
For assay [3], the target named is GST-HDGFRP3 fusion protein (human) (UniProt Q9Y3E1). The experiment in a line: pull-down; GST-HDGFRP3 (10 μg) immobilised on glutathione Sepharose 4B beads, incubated with lysates of HEK293T cells expressing HA-53BP1 (WT, 28SA or 30SA) in NTEN buffer with 2 mM MgCl2 and Benzonase, 3 h at 4°C; cells untreated, IR 10 Gy, or ATMi before IR; only the target purified.
The target in another assay is SFB-53BP1 (wild type) (UniProt Q12888). The experiment in a line: proximity ligation; in situ PLA in U2OS cells transfected with an SFB-tagged construct; FLAG antibody and antibody to the endogenous partner.
Assay [4] has as its target 53BP1, endogenous (human (endogenous in HEK293T, U2OS, MCF10A)) (UniProt Q12888). The experiment in a line: proximity ligation; in situ PLA (Duolink) in fixed U2OS cells with antibodies to the two endogenous proteins; untreated, IR (10 Gy), ATMi before IR, MDC1 knockdown.
Assay [5] has the same target. The assay is described as follows: co-IP; endogenous proteins; HEK293T lysates in NTEN buffer with Benzonase, Protein A agarose with anti-HDGFRP3 or anti-53BP1 antibody, 3 h at 4°C; untreated or irradiated (10 Gy, 1 h recovery).
For assay [6] the target is unchanged. The experiment in a line: proximity ligation; in situ PLA in U2OS cells transfected with an SFB-tagged construct; FLAG antibody and antibody to the endogenous partner.

On to “53BP1, endogenous (from UniProt Q12888 1-1972)”, for which the binding entry in assay [1] is listed as “binds”.
On to “HA-53BP1 D1521R mutant (from UniProt Q12888 1-1972)”, for which the binding result in assay [2] is “no binding”.
Same read-out and setting: under “HA-53BP1 L1619A mutant (from UniProt Q12888 1-1972)” stands “binds”.
As to “HA-tagged 53BP1 (wild type) (from UniProt Q12888 1-1972)”, the binding entry in assay [2] and in assay [3] was “binds” each time.
Turning to “HDGFRP3 (hepatoma-derived growth factor related protein 3), endogenous (from UniProt Q9Y3E1 1-203)”, the binding result (in the assay with SFB-53BP1 (wild type); in assay [4]; in assay [5]) was “binds” each time.
Regarding “SFB-tagged human HDGFRP3 (wild type) (from UniProt Q9Y3E1 1-203)”, in assay [6], the binding entry was “binds”.
